Sequences and labels used below:
B1: PhoQ; a variant is named by its letters at X, in order, P23837 (parent)
chain: MKKLLRLFFPLSLRVRFLLATAAVVLVLSLAYGMVALIGYSVSFDKTTFRLLRGESNLFYTLAKWENNKLHVELPENIDKQSPTMTLIYDENGQLLWAQRDVPWLMKMIQPDWLKSNGFHEIEADVNDTSLLLSGDHSIQQQLQEVREDDDDAEMTHSVAVNVYPATSRMPKLTIVVVDTIPVELKSSYMVWSWFIYVLSANLLLVIPLLWVAAWWSLRPIEALAKEVRELEEHNRELLNPATTRELTSLVRNLNRLLKSERERYDKYRTTLTDLTHSLKTPLXXLQXXLRSLRSEKMSVSDAEPVMLEQISRISQQIGYYLHRASMRGGTLLSRELHPVAPLLDNLTSALNKVYQRKGVNISLDISPEISFVGEQNDFVEVMGNVLDNACKYCLEFVEISARQTDEHLYIVVEDDGPGIPLSKREVIFDRGQRVDTLRPGQGVGLAVAREITEQYEGKIVAGESMLGGARMEVIFGRQHSAPKDE

The list shows a part of the results. Where only a bound is given, the exact number is not on record here.

The variants in the experiment derive from B1. The experiment can be described thus: enrichment ratio after two sorts for PhoP signalling (ratio (wild type AVST 3.29)); higher = more functional. The note with it: with PhoP (E. coli).
With PDEI, the enrichment ratio was ≤ 0.25.

Consider LRPF, for which the enrichment ratio is ≤ 0.25. Then SKND, with ≤ 0.25; and QWFN, with ≤ 0.25. Next, LLLG: ≤ 0.25; RPGW: ≤ 0.25; KMRD: ≤ 0.25. Next, TPIG: ≤ 0.25; IAGK: ≤ 0.25; QMYV: ≤ 0.25. Turning to HQRD, the enrichment ratio was ≤ 0.25. Turning to YHLR, the enrichment ratio was ≤ 0.25.

As to EHTH, the enrichment ratio is ≤ 0.25. Next, QIQT: ≤ 0.25; RGLD: ≤ 0.25. For GFKR, the enrichment ratio was ≤ 0.25. Take VEEV: the enrichment ratio was ≤ 0.25.

YMVL: the enrichment ratio is ≤ 0.25. Then HFRT, with ≤ 0.25; and ECYL, with ≤ 0.25. Then WYTH, with ≤ 0.25; and IAVV, with ≤ 0.25. Next, AYQY: ≤ 0.25; HGAR: ≤ 0.25. For IYVH, the enrichment ratio is ≤ 0.25.

Turning to MYTA, the enrichment ratio is ≤ 0.25. Then TFPK, with ≤ 0.25.

MHGA: the enrichment ratio is ≤ 0.25. In the case of HCLC, the enrichment ratio was ≤ 0.25. Consider PCTE, for which the enrichment ratio is ≤ 0.25. Then MYAK, with ≤ 0.25; and SEVN, with 6.45.

For the variant AGSA, the enrichment ratio was determined as 9.14. Turning to TDGS, the enrichment ratio was ≤ 0.25. Regarding YPNF, the enrichment ratio is ≤ 0.25. Next, MGGF: ≤ 0.25.

On to DDGY, for which the enrichment ratio was ≤ 0.25. Then WPIR, with ≤ 0.25; and RTCS, with ≤ 0.25; and DICS, with ≤ 0.25. On to GCKK, for which the enrichment ratio is ≤ 0.25.

Consider AKEV, for which the enrichment ratio is ≤ 0.25. Next, YCRC: ≤ 0.25; NNNA: ≤ 0.25; QGPD: ≤ 0.25. Next, LNWQ: ≤ 0.25. For VYEH, the enrichment ratio is ≤ 0.25. Next, GYPF: ≤ 0.25; LMKS: ≤ 0.25; PYTI: ≤ 0.25. Next, HCPS: ≤ 0.25; YGHH: ≤ 0.25. Next, VNTL: 2.18; NPWV: ≤ 0.25; MQFL: 2.22. Regarding DTSY, the enrichment ratio was ≤ 0.25. Then SCQG, with 7.52; and MRPP, with ≤ 0.25; and FNNN, with ≤ 0.25. Then NCRP, with ≤ 0.25. Next, MVAW: ≤ 0.25.

GNPS: the enrichment ratio was ≤ 0.25. Then DEYG, with ≤ 0.25; and NEFA, with ≤ 0.25; and PSCG, with ≤ 0.25. Next, EQFW: ≤ 0.25; PKIA: ≤ 0.25. Next, KSHT: ≤ 0.25; VAAH: ≤ 0.25; LYRR: ≤ 0.25. Consider LCCD, for which the enrichment ratio was ≤ 0.25. Next, GERA: ≤ 0.25; AIHK: ≤ 0.25. In the case of MFHF, the enrichment ratio is ≤ 0.25. Next, INER: ≤ 0.25. ERAY: the enrichment ratio is ≤ 0.25. Next, SQFV: ≤ 0.25; NMIS: ≤ 0.25. Next, TWPG: ≤ 0.25; MIIM: ≤ 0.25. Then DLHE, with ≤ 0.25; and MFPV, with ≤ 0.25; and YEGT, with ≤ 0.25. Take IWPW: the enrichment ratio was ≤ 0.25.
